Data from the supplement of paper PMC11417369.
± gives the standard deviation of the averaged measurements. The list shows a part of the results.

tested on: PfAP2-LT AP2 domain (GST-tagged); assay: gcPBM binding intensity (ln(normalized median fluorescence intensity)); higher = stronger DNA binding
In short: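 Each value is the highest Masliner-normalised natural-log median intensity across replicate spots of either orientation of a probe. The probes were primer-extended double-stranded 36-bp intergenic genomic sequences on an Agilent 4 × 180k array, alongside negative controls, exposed for 1 h to GST-tagged P. falciparum DNA-binding domains expressed in E. coli. Bound protein was picked up with Alexa488 anti-GST antibody and scanned at 488 nm.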

| Sequence | gcPBM binding intensity (ln) |
| --- | --- |
| TTTTTTCTCAAAAAAAAAACCTATGGTTATTAAGAT [XGTACX_negctrl_site534] | 8.06 ± 0.42 |
| AAAATTTATAGTATGGTGCATAAAAATATATATATA | 8.82 ± 0.46 |
| AAAAAAAAAAAAAAATGTACATAAAAATGATATAAT [XGTACX_site4096] | 8.83 ± 0.47 |
| TATAAGAAAAATAACACACACATAAACATAAATACA [CACACA_site5536] | 9.48 ± 0.21 |
| TTATAATTCTATTATCTGTTCTTTTTATATTTTTTT [CACACA_negctrl_site855] | 8.68 ± 0.49 |
| TTCTAAACACATTGACAAATTAATATATTACAGCAA [GTGCAC_negctrl_site121] | 8.48 ± 0.36 |
| TTATTTTTCAATGAAAAGGATTATATATATATATAT [CACACA_negctrl_site757] | 8.95 ± 0.092 |
| TGATGAAAATTTTTCTGTACAAAAAGTATGAAGGTA [XGTACX_site8901] | 8.65 ± 0.45 |
| ACAATATATAAAATATGTACATAATATATATAATGA [XGTACX_site8731] | 8.86 ± 0.32 |
| CCTAATTTTATTAGGGTGCATTTTTAGTTAAATATA | 8.35 ± 0.32 |
| ATCCACAAATTAACAAGTACATATATATATATATAT [XGTACX_site1267] | 9.64 ± 0.14 |
| TAAGTTATATGTACTACACACGTACACAAAATAAGA [CACACA_site9237] | 9.08 ± 0.35 |
| TTAAGAATCTATACTAGTACATATATGTATACAAGC [XGTACX_site8025] | 8.85 ± 0.47 |
| ATTGTGTTAATAAAATGTACATTTTCTCTACTTTAA [XGTACX_site1199] | 8.84 ± 0.54 |
| TGTAGAACAAAAAATTGTACATATTTGTAAAAAAAA [XGTACX_site3850] | 8.61 ± 0.53 |
| TATATATATATGTGTAGTACAACAAATATGAAAAAT [XGTACX_site4059] | 9.11 ± 0.4 |
| ATGAAAACCATGACGGGTACTCATTTATTATTTTAT [XGTACX_site6724] | 8.75 ± 0.44 |
| AATTTAATATAATGCACACATAAAAAAAAATTCAAA [CACACA_site2062] | 8.89 ± 0.41 |
| ATTTATTTGTTTATTTGTTTATTTGTTTATTTGTTT [CACACA_negctrl_site1386] | 9.06 ± 0.46 |
| GAAATACATTTTAAAAAATAAGTAATTATAAAATAA [TGCATGCA_negctrl_site303] | 8.42 ± 0.47 |
| GATACCTATAGACACACACACATACCTATATACATA [CACACA_site7586] | 9.66 ± 0.47 |
| TTTATAAATAAACACACACACATGTGAACATAAAAA [CACACA_site5110] | 9.47 ± 0.35 |
| ATTCATCCAATAATGTGAATTATCATGATAAACTTA [TGCATGCA_negctrl_site406] | 8.62 ± 0.33 |

| Sequence | gcPBM binding intensity (ln) |
| --- | --- |
| ATCAAAATTGTCATTACACACCTTTATTTTTAGAAT [CACACA_site1813] | 8.77 ± 0.42 |
| ATATATGTAAATGAATGTACATTATTTTATATATTA [XGTACX_site8460] | 8.82 ± 0.42 |
| ATTATTCTATATGAAACATGCATACATTTGTATTTT [TGCATGCA_site823] | 8.93 ± 0.39 |
| TACAACTTAATATGTACACACAAATATATATATATA [CACACA_site5138] | 9.36 ± 0.28 |
| AAAATAATAAAAAACTGTACGAATTAAAAATTAACA [XGTACX_site8454] | 8.65 ± 0.42 |
| TTGGATTTTTCCTATGAACACACGGGGTTACAATTA [CACACA_site449] | 8.87 ± 0.26 |
| TCCAATAATTTATAAAAAAAAAAAGGGAAAATGTAT [TGCATGCA_negctrl_site492] | 8.41 ± 0.55 |
| ATATATTTATTATTAACATGCAATCATTATATATAA [TGCATGCA_site404] | 8.44 ± 0.39 |
| TTAATATGAGAATAATGTACAAGAAAATATTACATA [XGTACX_site6609] | 8.6 ± 0.5 |
| CTTTCATTTCTATCTACACACATATTTTTTCCAAGT [CACACA_site2972] | 9.12 ± 0.5 |
| GCGTGCGTGTACTTAACACACATAATATGTATTTAT [CACACA_site1247] | 9.33 ± 0.3 |
| TTTTTTTTTCCCCCATGTACATAAATAAGTATATCT [XGTACX_site6965] | 8.76 ± 0.13 |
| TTAATGTACAGACACCCACACACAAACAAATATATA [CACACA_site8888] | 9.57 ± 0.3 |
| AAAAGAAAAAAAAGTACACACATGTATATTAAGCGT [CACACA_site5402] | 9.38 ± 0.42 |
| TAACTTAATTTTAATGCACACAATTTATATATATAT [CACACA_site6022] | 8.89 ± 0.36 |
| AAAAATATATATATATATATATATATATTATTTTTT [TGCATGCA_negctrl_site378] | 8.96 ± 0.19 |
| TATATATATAAATACAGTACATATATAATATTTTGA [XGTACX_site637] | 8.64 ± 0.41 |
| ATATGTACTATACGCACACACACTCACATATATATA [CACACA_site3239] | 9.77 ± 0.35 |
| AATTATATGAAATAAACACACATATGCAATATTGCA [CACACA_site6988] | 8.87 ± 0.4 |
| TTCAAGATTTATTATACACACATATTAAAATATATA [CACACA_site4479] | 8.6 ± 0.39 |
| AAACATTTTCATTTGACACACATCATATATTTATAT [CACACA_site1794] | 9.11 ± 0.42 |
| AAAAAATTATTATGAACACACATTTATTATATTCAT [CACACA_site1566] | 8.71 ± 0.54 |
| AATCTATCAAAGTGTACATGCAATAAAAAAAAAAAA [TGCATGCA_site103] | 8.87 ± 0.45 |

| Sequence | gcPBM binding intensity (ln) |
| --- | --- |
| TTTTTTTATTAATGTAGTACAATATAATGTTATATT [XGTACX_site2295] | 8.61 ± 0.6 |
| GAGGTCTTTTTTAATGTGCACATATATATATATATA | 9.54 ± 0.16 |
| TTTTTTTTTTTTTTTACACACTCCAATAAAAAAGAA [CACACA_site2119] | 8.27 ± 0.3 |
| TATAAAAATATATTTACACACTATAAATATCGAAAG [CACACA_site6896] | 8.68 ± 0.4 |
| TAATTTATAAATATAATATTTATGTATATGATGTTT [CACACA_negctrl_site464] | 8.64 ± 0.45 |
| ATTATATATATCAGGTGTACGTAAAAAAAATGGACG [XGTACX_site1028] | 9.1 ± 0.37 |
| AACGATTTACATCACTGTACTAATGATATACCTCAT [XGTACX_site7463] | 9.14 ± 0.39 |
| TATATATATATATATTGTACTATATAGTATCTTTTT [XGTACX_site1646] | 9.46 ± 0.2 |
| TATATATTTTCTTTTGCACACTGTTTTCCTTTTTTT [CACACA_site2739] | 9.3 ± 0.47 |
| TTCGTAATTTATATCACACACATATATATATAATAA [CACACA_site3115] | 8.89 ± 0.38 |
| TACCCTTGCATGTAGGTGCAATTTTTTTTTTTTTTT | 8.76 ± 0.43 |
| CAACTTTATACATATAGTACAAGTTATATTTTATTA [XGTACX_site6651] | 8.49 ± 0.47 |
| TAATAATAGTACTGACATCAAAATCTTATTAAAAAT [GTGCAC_negctrl_site308] | 8.61 ± 0.42 |
| TTCTTTTTTATTTTTCAACACACATAATAAATTTCT [CACACA_site8253] | 8.79 ± 0.43 |
| CTTTCCATATATGATAGTACACGATAAAAAAAAAAA [XGTACX_site5772] | 8.46 ± 0.43 |
| AAAGAAATAAGGTGCACACATATACATATATATATA [CACACA_site429] | 9.71 ± 0.23 |
| TTTAAAAAAAATTCATATTATATATATATATATTAT [CACACA_negctrl_site1733] | 8.49 ± 0.47 |
| AAGAAATAAATACATACACACATATATAAATAAATA [CACACA_site7559] | 9.21 ± 0.43 |
| AAGAAATAATTATTATGTACTTAAAAAAATTAAAAT [XGTACX_site7423] | 8.54 ± 0.52 |
| ATATATATATAATTATATAAAATATATCATATGTTA [XGTACX_negctrl_site47] | 8.53 ± 0.42 |
| TTTATGTATTTAATATGTACATATAGTTGTTAATAA [XGTACX_site1938] | 8.62 ± 0.33 |
| AAAATGTACGCATATACACACACATAAATAGATACG [CACACA_site9124] | 9.57 ± 0.29 |
| GCTATATATTAATGTTGTACTTTATGTTCATATTGT [XGTACX_site3619] | 9.1 ± 0.48 |

| Sequence | gcPBM binding intensity (ln) |
| --- | --- |
| TAAATATAGAAACACACACACATTAATACATATATT [CACACA_site3489] | 9.745 ± 0.078 |
| AAATTTGAAATGCATGAACACACACCGCTATAAATG [CACACA_site8230] | 9.3 ± 0.31 |
| TAATTTTTTATATATTGTACAAATAATATATGATGT [XGTACX_site268] | 8.62 ± 0.42 |
| ATCATTTTTATGTACACACACATATACGTTGAATAT [CACACA_site1865] | 9.47 ± 0.28 |
| ACATCATAAAATTTATGTACACATTTTTAATTATAC [XGTACX_site7759] | 8.74 ± 0.44 |
| AAGGTATACACTGCTTTATCAAGTTTAACTCTTTTT [XGTACX_negctrl_site118] | 8.65 ± 0.46 |
| TATAAAATTTACGTGTGTACATATTTAATAATTTTT [XGTACX_site5001] | 8.84 ± 0.42 |
| AAGATATGAGGGAATACACACATATTTATATTTATA [CACACA_site6846] | 8.96 ± 0.47 |
| GTTTCTACTTATATAACAGGACACGTGTGAATAATT [TGCATGCA_negctrl_site430] | 9.24 ± 0.25 |
| ACAATTGCATCTATCACACATACATACATACATACA [CACACA_site5063] | 9.16 ± 0.24 |
| TTGAAGGTGGCAATGTGTACATAGAATAACCAGTGC [XGTACX_site4738] | 9.15 ± 0.54 |
| AAAAAAAAAAAACATTGTACGCACATTTTATATGTC [XGTACX_site6974] | 8.9 ± 0.35 |
| AAAAAAATACATACGTGTACCCACATATATGTATCT [XGTACX_site5319] | 8.94 ± 0.45 |
| AATAAAAATAAAAGCACACATAAATATATATATATT [CACACA_site1441] | 9.07 ± 0.46 |
| TCATGGCCATTTTCAGTGCATATGTGTATTTAATAT [GTGCAC_site9529] | 8.93 ± 0.34 |
| GCAAGTCCATGAACGGTGCAGGAATTAACAAAAATA | 8.91 ± 0.61 |
| TATAATGATGATGATAGTACGTATTAGTATAAAAAA [XGTACX_site9] | 8.81 ± 0.52 |
| TCATGGGTGTATTTCACACACGGATAATCATTTATA [CACACA_site4663] | 9.08 ± 0.38 |
| TCATAAAAATAAAAATGTACACATTAGAAATATTGT [XGTACX_site3671] | 8.72 ± 0.41 |
| ATATTTTTTTTTGTTACACACGTTTTTTAAAAAATG [CACACA_site1603] | 9.02 ± 0.44 |
